According to PubChem BioAssay AID651820 (National Center for Advancing Translational Sciences (NCATS), 2012):
Where “and” joins values, the source holds several entries; their conditions need not be identical. Equal values may be shown once. The whole screen tested about 340,000 compounds, of which about 12,000 (3.5%) were called active. This list was built around the results that the source calls inconclusive (neither active nor inactive); the mix of calls is not that of the screen. Calls follow the shape of the dose curve; as a rule, active = well fitted inhibition curve with a large enough effect; inconclusive = small, poorly fitted or top-dose-only effect, or another doubt; inactive = no such curve, though single readings can be large or run the other way. A potency beside an inconclusive call is a rough fit, not a confirmed value.

Experiment: qHTS Assay for Inhibitors of Hepatitis C Virus (HCV)
Details: Huh7.5.1 HCVcc-Cre (HCVcc is cell-culture hepatitis C virus) infection, luciferase reporter, 44 h; activity change, negative = inhibition: at 41.8 µM (top of the series) unless noted
Summary of the method: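 Whole-lifecycle infectious HCVcc-Cre system; cells 1,000/well, compound then virus (~0.5 moi) added 4 h after plating, 44 h culture. Luciferase read 15 sec following 15 min substrate incubation, room temp.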
% is scaled to controls: 0 for no effect and ±100 for the full control effect; potency is read from the fitted curve at half-maximal effect; tags tell the direction and shape of the fitted curve.

Q: Which Potency does the source give for `CCC1CN(C(=O)N2CCC(C(=O)NCCc3ccccc3OC)CC2)c2ccccc2O1` (stereo unspecified) here?
A: inconclusive: 8.91 µM [inhibitor, partial curve]

Q: With `CC1(C)C2CCC(C2)C1(C)NC(=O)CNCc1cccs1` (stereo unspecified) as the molecule, how does the “activity change, negative = inhibition” value read?
A: inactive: 10.4%

Q: With `CCN1CCN(C(=O)c2ccccc2Nc2ccc(SC(F)F)cc2)CC1` as the molecule, how does the Potency read?
A: inconclusive: 31.6 µM [inhibitor, single point]

Q: Which “activity change, negative = inhibition” value does the source give for `CC12C(=O)N(c3ccc(C(=O)N4CCOCC4)cc3)C(=O)C1C1c3ccccc3C2c2ccccc21` (stereo unspecified) here?
A: inactive: 5.88%

Q: For `C[C@H]1CCC[C@@]2(O[C@@H](CCO)C[C@@H](O)[C@@H]2O)O1`, which “activity change, negative = inhibition” value is on record?
A: inactive: 7.75%

Q: Which “activity change, negative = inhibition” value does the source give for `CC1CCCC(NC(=O)c2nn(C)c3c2CS(=O)(=O)c2ccccc2-3)C1C` (stereo unspecified) here?
A: inactive: -0.92%

Q: For `COc1cccc(-c2cc(C(=O)Nc3ccn(Cc4ccc(C)cc4)n3)no2)c1`, which Potency is on record?
A: inconclusive: 8.91 µM [inhibitor, partial curve]

Q: Which “activity change, negative = inhibition” value does the source give for `CC(=O)Nc1cccc(OCCCNC(=O)C2CCC2)c1` here?
A: inactive: -1.44%

Q: For `Cc1ccccc1N1CC(C(=O)N2CCc3ccccc32)CC1=O` (stereo unspecified), which “activity change, negative = inhibition” value is on record?
A: inactive: -4.59%

Q: For `CCC(CO)Oc1cc(NCc2cccc(Cl)c2)c2ncn(C(C)C)c2c1` (stereo unspecified), which Potency is on record?
A: inconclusive: 14.1 µM [inhibitor, single point]

Q: Which “activity change, negative = inhibition” value does the source give for `NC(=S)NN=C(c1ccc(F)cc1)C1CC1` here?
A: inactive: 23.3%

Q: Which Potency does the source give for `O=C(CCn1c(=O)sc2ccccc21)Nc1nc2ccccc2s1` here?
A: inconclusive: 10 µM [inhibitor, partial curve]

Q: With `CC1=CS/C(=C(/C#N)C(=O)NCc2ccco2)N1c1ccccc1` as the molecule, how does the “activity change, negative = inhibition” value read?
A: inactive: 4.55%

Q: For `CC(Oc1ccc(Cl)cc1C(N)=O)C(=O)N1CCc2ccccc21` (stereo unspecified), which Potency is on record?
A: inconclusive: 20 µM [inhibitor, partial curve]

Q: With `O=C(CNS(=O)(=O)c1cccc2nsnc12)NC1CCCCC1` as the molecule, how does the Potency read?
A: inconclusive: 28.2 µM [inhibitor, single point]

Q: For `O=C(NCC1COc2ccccc2O1)c1cc(S(=O)(=O)N2CCOCC2)c(Cl)cc1Cl` (stereo unspecified), which Potency is on record?
A: inconclusive: 31.6 µM [inhibitor, single point]

Q: With `CN(C(=O)CNC(=O)OCc1ccccc1)c1ccc(Br)cc1C(=O)c1ccccc1Cl` as the molecule, how does the Potency read?
A: inconclusive: 3.98 µM [inhibitor, full curve, poor fit]

Q: For `Cc1nc(C)c(-c2ccc(SCc3ccc(Cl)cc3)nn2)s1`, which Potency is on record?
A: inconclusive: 31.6 µM [inhibitor, single point]

Q: For `Cn1cc(C(=O)NCCN2CCN(c3cccc(Cl)c3)CC2)c2c3ccccc3n(C)c2c1=O`, which “activity change, negative = inhibition” value is on record?
A: inactive: 0.677%

Q: For `O=C(NCc1cccnc1)c1nn2cccnc2c1Cl`, which “activity change, negative = inhibition” value is on record?
A: inactive: 12.9%

Q: With `COc1cc(C2C3=C(CC(C)(C)CC3=O)OC3=C2C(=O)CC(C)(C)C3)cc([N+](=O)[O-])c1O` as the molecule, how does the “activity change, negative = inhibition” value read?
A: inactive: 2.75%

Q: With `CCN1CCN(C(=O)c2ccc3c(=O)n(Cc4ccccc4OC)c(=S)[nH]c3c2)CC1` as the molecule, how does the Potency read?
A: active: 11.2 µM

Q: Which “activity change, negative = inhibition” value does the source give for `CCNC(=O)c1ccccc1NC(=O)C1CC(=O)N(C(C)C)C1` (stereo unspecified) here?
A: inactive: 8.45%

Q: Which Potency does the source give for `COc1ccc(CNC(=O)c2cc3c(=O)n4ccccc4nc3n(Cc3cccnc3)c2=N)cc1` here?
A: inconclusive: 2.82 µM [inhibitor, partial curve] and inconclusive: 10 µM [inhibitor, single point]

Q: Which “activity change, negative = inhibition” value does the source give for `O=C(N/N=C/c1ccccc1F)c1csc2c1CCCC2` here?
A: inactive: 18.2%

Q: With `Cc1oc(-c2cc(F)cc(F)c2)nc1CN1CCSCC1` as the molecule, how does the “activity change, negative = inhibition” value read?
A: inactive: 1.96%

Q: With `CCNC(=O)Nc1cc(S(=O)(=O)Nc2ccc(OC)cc2)ccc1N1CCOCC1` as the molecule, how does the Potency read?
A: inconclusive: 2.24 µM [inhibitor, full curve]

Q: Which Potency does the source give for `CCN1C(c2ccccc2)=C(c2ccccc2)S/C1=C/C=C1\SC(=S)N(C)C1=O` here?
A: inconclusive: 7.94 µM [inhibitor, partial curve]

Q: Which Potency does the source give for `O=[N+]([O-])c1cccnc1N1CCC(c2cc(-c3cccc(C(F)(F)F)c3)n[nH]2)CC1` here?
A: inconclusive: 12.6 µM [inhibitor, single point]

Q: For `Cc1ccc(Nc2nc(N)nc(CN3CCN(c4ccccc4)CC3)n2)cc1Cl`, which Potency is on record?
A: inconclusive: 31.6 µM [inhibitor, single point]

Q: Which Potency does the source give for `Cc1cc(SCC(=O)NC2CC2)nc2ccccc12` here?
A: inconclusive: 31.6 µM [inhibitor, single point]

Q: Which “activity change, negative = inhibition” value does the source give for `O=C(O)Cc1ccc2c(c1)N(S(=O)(=O)c1cccs1)CC(C(=O)O)O2` (stereo unspecified) here?
A: inactive: 5.27%

Q: Which Potency does the source give for `CCOC(=O)c1ccc(NC(=S)N(CCN(C)C)C(C)c2ccncc2)cc1` (stereo unspecified) here?
A: inconclusive: 3.98 µM [inhibitor, partial curve]

Q: For `Cc1c(C(=O)Nc2ccncc2)oc2c1C(=O)CC(C)(C)C2`, which Potency is on record?
A: inconclusive: 31.6 µM [inhibitor, single point]

Q: For `COc1ccc(OC)c(-c2csc(NC(=O)C3CSC4(C)CCC(=O)N34)n2)c1` (stereo unspecified), which Potency is on record?
A: active: 3.16 µM

Q: For `COc1ccc(CCNc2oc(-c3cccc4ccccc34)nc2P(=O)(OC)OC)cc1OC`, which Potency is on record?
A: inconclusive: 4.47 µM [inhibitor, single point]

Q: For `CCOc1ccc(CCNC(=O)c2nnn(CC(=O)Nc3ccc(OC)c(OC)c3)c2N)cc1OCC`, which Potency is on record?
A: inconclusive: 2.51 µM [inhibitor, full curve]

Q: Which Potency does the source give for `COc1ccc(CN2CCn3ncc(C(=O)Nc4cccc(C)c4)c3C2=O)cc1` here?
A: inconclusive: 8.91 µM [inhibitor, partial curve]

Q: With `CC(=O)N(C)c1ccc(C=C2C=Cc3ccccc32)cc1` as the molecule, how does the Potency read?
A: inconclusive: 31.6 µM [inhibitor, single point]

Q: Which Potency does the source give for `Cc1ccc(OCc2ccc(-c3ccccc3)cc2)c([N+](=O)[O-])n1` here?
A: inconclusive: 11.2 µM [inhibitor, single point]

Q: For `CNC(=O)COC(=O)c1cc2c(C)nn(-c3ccc(F)cc3)c2s1`, which Potency is on record?
A: inconclusive: 3.55 µM [inhibitor, full curve]

Q: For `O=C(NC12CC3CC(CC(C3)C1)C2)N(Cc1ccccc1)Cc1ccncc1`, which “activity change, negative = inhibition” value is on record?
A: inactive: -0.0091%

Q: For `CCOC(=O)Cc1csc(N/N=C/c2ccccc2)n1`, which Potency is on record?
A: inconclusive: 11.2 µM [inhibitor, partial curve, poor fit]

Q: For `CCCC(=O)Nc1ccc(NC(=O)C23CC4CC(CC(C4)C2)C3)cn1`, which Potency is on record?
A: inconclusive: 31.6 µM [inhibitor, single point]

Q: Which Potency does the source give for `Cn1c(=O)c2c(nc(Cl)n2CCOc2ccccc2)n(C)c1=O` here?
A: inconclusive: 14.1 µM [inhibitor, single point]

Q: Which Potency does the source give for `CCc1cc2c(COC(=O)c3c(C)noc3C)cc(=O)oc2cc1O` here?
A: inconclusive: 2.24 µM [inhibitor, full curve]

Q: For `COc1ccc(CCNC(=O)c2cc(C(=O)c3cc(C)ccc3O)cn(CCc3ccc(OC)cc3)c2=O)cc1`, which Potency is on record?
A: inconclusive: 11.2 µM [inhibitor, single point]

Q: Which Potency does the source give for `O=[N+]([O-])c1ccc(CSc2nnc(SCc3ccc(Cl)cc3)s2)cc1` here?
A: inconclusive: 22.4 µM [inhibitor, single point]

Q: For `CCCCCCCCCC[N+](C)(C)CC/C=C1/c2ccccc2Sc2ccc(Cl)cc21`, which Potency is on record?
A: inconclusive: 22.4 µM [inhibitor, single point]

Q: With `CN(C)S(=O)(=O)c1ccc(Cl)c(NC(=O)CN2CCN(Cc3ccc4c(c3)OCO4)CC2)c1` as the molecule, how does the Potency read?
A: inconclusive: 14.1 µM [inhibitor, partial curve]

Q: Which Potency does the source give for `Cc1cccc(-n2c(=S)[nH]c3c(oc4ccccc43)c2=O)c1` here?
A: inconclusive: 5.62 µM [inhibitor, single point]

Q: For `O=c1[nH]c(=O)n(-c2cccc3ccccc23)c(O)c1/C=N/N1CCCCC1c1cccnc1` (stereo unspecified), which “activity change, negative = inhibition” value is on record?
A: inactive: 5.08%

Q: For `CCn1c2ccccc2c2cc(CNCCCN3CCOCC3)ccc21`, which Potency is on record?
A: inconclusive: 7.94 µM [inhibitor, partial curve]

Q: With `N#Cc1nc(-c2cccs2)oc1N1CCN(c2ccccc2)CC1` as the molecule, how does the Potency read?
A: active: 2.82 µM

Q: Which “activity change, negative = inhibition” value does the source give for `O=C(CSc1n[nH]c(-c2ccccc2)n1)Nc1ncccn1` here?
A: inactive: 1.31%

Q: For `Cc1cccn2c(=O)c(C=O)c(N3CCN(c4ccccc4)CC3)nc12`, which Potency is on record?
A: inconclusive: 31.6 µM [inhibitor, single point]

Q: With `COc1ccccc1C(=O)Nc1ccc2c(c1)nc(CN1CCN(C(C)=O)CC1)n2C` as the molecule, how does the Potency read?
A: inconclusive: 14.1 µM [inhibitor, partial curve]

Q: For `O=C1CNC(=S)N1CCc1ccccc1Cl`, which “activity change, negative = inhibition” value is on record?
A: inactive: 16.8%

Q: With `CCc1ccc(-c2cc(C(=O)NCc3ccccn3)c3ccccc3n2)cc1` as the molecule, how does the Potency read?
A: inconclusive: 10 µM [inhibitor, single point]

Q: With `CN(c1ccccc1)c1ccc([N+](=O)[O-])c2nonc12` as the molecule, how does the Potency read?
A: inconclusive: 10 µM [inhibitor, single point]

Q: With `CCc1nnc(NC(=O)CSc2nc3cc(OC)ccc3cc2C)s1` as the molecule, how does the Potency read?
A: inconclusive: 31.6 µM [inhibitor, single point]

Q: For `CCN1/C(=C/c2ccc3ccccc3[n+]2CC)C=Cc2ccccc21`, which Potency is on record?
A: active: 4.47 µM

Q: With `Cc1ccccc1CSCC(=O)Nc1ccccc1Br` as the molecule, how does the “activity change, negative = inhibition” value read?
A: inactive: -6.59%

Q: With `CC(=O)Oc1ccc(C(=O)Nn2cnnc2)cc1` as the molecule, how does the “activity change, negative = inhibition” value read?
A: inactive: 6.59%

Q: Which “activity change, negative = inhibition” value does the source give for `Cn1nc(C(=O)OCC(=O)Nc2cccc(S(=O)(=O)N3CCCC3)c2)c2ccccc2c1=O` here?
A: inactive: 22.3%

Q: With `COc1ccc(C(=O)c2c(N)sc3c2CCN(C(=O)OC(C)(C)C)C3)cc1` as the molecule, how does the activity change, negative = inhibition read?
A: inconclusive: -30.9% [inhibitor]

Q: Which Potency does the source give for `O=C(COc1ccccc1)Nc1cc2c3c(c1)CC(=O)N3CCC2` here?
A: inconclusive: 22.4 µM [inhibitor, single point]

Q: For `O=C(CNc1cccc(S(=O)(=O)N2CCOCC2)c1)Nc1cccc(Br)c1`, which Potency is on record?
A: inconclusive: 11.2 µM [inhibitor, partial curve]

Q: Which “activity change, negative = inhibition” value does the source give for `COc1ccccc1CNC(=O)COC(=O)C1=COCCO1` here?
A: inactive: 19%

Q: Which “activity change, negative = inhibition” value does the source give for `COc1ccc(F)cc1S(=O)(=O)NCc1cc(=O)n(C)c(=O)n1C` here?
A: inactive: 0.514%

Q: Which Potency does the source give for `CCC1C=CC=CC[C@H](C)[C@@H](O)[C@](C)(O)C(=O)[C@@H](C)[C@H](O)[C@@H](C)C(=O)[C@H](C)[C@@H](O)[C@H](C)C=CC(=O)OC2[C@@H](C)C(CC1)OC1(CC[C@@H](C)C(C[C@H](C)O)O1)[C@@H]2C` (stereo partly specified) here?
A: active: 0.891 µM
